Assay results published in ChEMBL document CHEMBL1201862, “PubChem BioAssay data set” (2004).
Where “and” joins values, the source holds several entries; their conditions need not be identical. Equal values may be shown once.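 Where inhibition never reached the appropriate level, the endpoint shown equals the highest concentration tested. Otherwise, values were interpolated linearly from a five-concentration, 48-hour dose response in 96-well plates. Here, GI50 denotes the concentration required for 50% inhibition of growth.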 Calls of active or inactive are those of the source. Cut-off read from the data, not from the text of the source: active = GI50 up to about 1.1 µM and inactive = higher.

These compounds were tested on NCI-H322M (assay: NCI anticancer screen, dose series, 48 h).

Structure (SMILES) | GI50
O=C1C=C(Sc2ccccc2)c2nccc3c2c1nc1ccccc13 | inactive: 28.1 µM
O=C(O)CNc1ncc2c(n1)-c1ccccc1OC2 | inactive: > 100 µM
COc1ccc(C(=O)C(C(=O)C(=O)NCCCNC(=O)C(=O)C(C(=O)c2ccc(OC)cc2)c2ccc(OC)cc2)c2ccc(OC)cc2)cc1 (configuration not stated) | inactive: > 100 µM
O=C1N(c2ccccc2)C2(c3ccccc3)CC3CCCC13S2 (configuration not stated) | inactive: > 100 µM
CC(=O)OCC1OC(O[C@@H]2C[C@H]3C(C)(C)[C@H](OC(C)=O)CC[C@]3(C)[C@H]3CC[C@@]45C[C@H](O)C[C@H](C)[C@@H]4CC=C5[C@@]32C)C(O)C(O)C1O (some centres not stated) | inactive: 8.24 µM
[O-][n+]1onc2c1/C(=N/O)CCC2 | inactive: > 100 µM
O=CN1CCN(C=S)CC1 | inactive: > 100 µM
O=c1cccccc1O.O=c1cccccc1O.O=c1cccccc1O.[SiH4] | inactive: 22.5 µM
Cc1cn(C2CC(N(O)Cc3ccccc3)C(CO[Si](C)(C)C(C)(C)C)O2)c(=O)[nH]c1=O (configuration not stated) | inactive: 18.7 µM and inactive: 20.6 µM
CN(CC(=O)Nc1ccccc1C(=O)O)c1ccccc1 | inactive: > 100 µM
CCOP(=O)(OCC)C(C)(CC)NC(=O)C(C(F)(F)F)C(F)(F)F (configuration not stated) | inactive: > 100 µM
CSC1(SC)N2Cc3ccccc3N=C2C1(c1ccccc1)c1ccccc1 | inactive: 22.9 µM
O/N=C(/C(Cl)=C(Cl)Cl)C(Cl)Cl | inactive: 26 µM
COC(=O)c1cc(C)ccc1CC(Cc1ccc(C)cc1)C(=O)OC (configuration not stated) | inactive: > 100 µM
C=CCCCn1ccc2ccccc21 | inactive: > 100 µM
Cn1c(N)c(/C=C/C(=O)Oc2ccccc2)c(=O)n(C)c1=O | inactive: > 100 µM
O=S(=O)([N-]c1nc2ccccc2nc1-[n+]1ccccc1)c1ccccc1 | inactive: > 100 µM
N#CCCN(CCC#N)c1ccc(/C=C2\N=C(c3cc([N+](=O)[O-])ccc3Cl)OC2=O)cc1 | inactive: 95.1 µM
CCCCCCCCCCCCCCCC(=O)N(CCCCCCCCCCC(=O)O)CC(O)C(O)C(OC1OC(CO)C(O)C(O)C1O)C(O)CO (configuration not stated) | inactive: 38.5 µM
Nc1nnc(N)n1N | inactive: > 100 µM
CCCC/N=C(/c1ccccc1)N1CCOCC1 | inactive: > 100 µM
CCOC(=O)C1=C(O)C(=O)c2ccccc2C1=O | inactive: 61.5 µM
Cc1cc(C(C)C)cc(=O)c(O)c1 | inactive: > 100 µM
O=C1CCCCC1S(=O)(=O)c1ccccc1 (configuration not stated) | inactive: > 100 µM
CC(C)OP(=O)(OC(C)C)/C(I)=N/Nc1ccc([N+](=O)[O-])cc1 | inactive: > 100 µM

Structure (SMILES) | GI50
CC(=O)Oc1ccc2cc(-c3ccccc3OC(C)=O)c(=O)oc2c1 | inactive: > 100 µM
COc1ccc(N2C(=O)C3c4[nH]c5c(C)cccc5c4C4CCC(c5ccccc5)CC4C3C2=O)cc1 (configuration not stated) | inactive: 17.6 µM
CCOC(=O)/C(C#N)=N\Nc1ccc(-n2c(C)nc3ccccc3c2=O)cc1 | inactive: > 100 µM
COc1cc2ccc1OCc1cccc(n1)COc1ccc(cc1OC)/C=N\c1ccc(cc1)/N=C\2 | inactive: > 100 µM
CCOC(=O)c1c(N2CCCC2)[nH]c(=O)c(C(c2ccc(N(C)C)cc2)c2c(O)c(C(=O)OCC)c(N3CCCC3)[nH]c2=O)c1O | inactive: > 100 µM
COc1ccc2nc3c([N+](=O)[O-])ccc4c3c(c2c1)N=CN4CCCN(C)C | active: 0.957 µM
CC1CN=C(Nc2cccc(F)c2)S1 (configuration not stated) | inactive: > 100 µM
CCCNC(=O)Nc1ccc2c(c1)Cc1cc(N(CCCl)CCCl)ccc1-2 | inactive: > 100 µM
N#Cc1c2ccc([N+](=O)[O-])cc2c(=O)n2c1[nH]c1ccc(C(F)(F)F)cc12 | inactive: 10.2 µM
C[N+]1(C)CCCC(C#N)(c2ccccc2)CC1 (configuration not stated) | inactive: > 100 µM
Oc1ccc(-c2cc(-c3c(O)cc(O)cc3O)on2)cc1 | inactive: > 100 µM
O=C1C2C(C(=O)N1c1ccccc1)C1c3ccccc3C2C2C(=O)N(c3ccccc3)C(=O)C21 (configuration not stated) | inactive: 3.82 µM
N#C/C(=C\c1ccccc1)c1nc(-c2cc3ccccc3oc2=O)cs1 | inactive: 87.3 µM
N=C(NNS(=O)(=O)c1ccccc1)Oc1ccc(Cl)cc1 | inactive: > 100 µM
CCCCC(=C=C1CCCCC1O)C1CCCN1C(=O)OC(C)(C)C (configuration not stated) | inactive: 16.1 µM
O=C(c1ccccc1O)c1cc(-c2ncc3c(=O)c4ccccc4oc3n2)c(-c2ccccc2O)[nH]c1=O | inactive: 39.4 µM
[O-]c1c[n+](CC[n+]2cc([O-])on2)no1 | inactive: > 100 µM
Cc1ccc(OP(=O)(Oc2ccc(C)cc2)N2C=Cc3ccccc3C2C#N)cc1 (configuration not stated) | inactive: > 100 µM
CC(=O)OCCOCNC(=S)N/N=C(\C)c1cccs1 | inactive: > 100 µM
O=c1ccn(CC2(CO)CCCC2)c(=O)[nH]1 | inactive: > 100 µM
N/C(=N\O)N/N=C\c1ccc(O)c(O)c1O | inactive: 19.6 µM
BrC12C3C4C5C(C(C43)C13OCCO3)C52 (configuration not stated) | inactive: > 100 µM
CC(=O)CCCCO | inactive: > 100 µM
O=c1[nH]c(=O)n(C2CC(O)C(CO)O2)cc1OS(=O)(=O)C(F)(F)F (configuration not stated) | inactive: > 100 µM
c1ccc2c(c1)N=C(NC1CCCCC1)CCN2 | inactive: > 100 µM

Structure (SMILES) | GI50
[O-][S+](c1ccccc1)C1CC2CC3(CCC21O)OCCO3 (configuration not stated) | inactive: > 100 µM
O=C1c2ccccc2C2(O)NC(=S)N(c3ccccc3)C12O (configuration not stated) | inactive: > 100 µM
COC(=O)c1c[nH]c2nc(N3CCOCC3)nn2c1=O | inactive: > 100 µM
CCCCN1C(=O)N(c2ccc(OCC)cc2)C2N(CCCC)C1C(C)(C)C2(C)C (configuration not stated) | inactive: 31.7 µM
S=C1c2cc(Cl)ccc2N=C(NC2CCCC2)C2CSCN12 (configuration not stated) | inactive: > 100 µM
COc1cccc(C2SCC(=O)N2c2ccc(-n3c(-c4ccccc4)nc4ccccc4c3=O)cc2)c1OC (configuration not stated) | inactive: > 100 µM
COc1cc(OC)cc(-c2nc3cc(F)ccc3s2)c1 | inactive: 94.4 µM
C=C(C)C(=O)[C@@]12C(=O)[C@@H](C)CC[C@H]1[C@H](C)C[C@@H]2C=C(C)C | inactive: 33.6 µM
CCCCCCCCOC(CO)CO | inactive: > 100 µM
Cc1ccccc1/N=N/c1ccc(/N=N/c2c(O)ccc3cc(S(=O)(=O)O)cc(S(=O)(=O)O)c23)c(C)c1 | inactive: > 100 µM
O=P1(N(CCCl)CCCl)Oc2ccc(Cl)cc2C(C(Cl)(Cl)Cl)c2cc(Cl)ccc2O1 (configuration not stated) | inactive: 21 µM
C=CC(C)(C)/C=C/c1ccc(O)cc1 | inactive: 69.5 µM
Cc1c2c3cc(O)ccc3nc-2n(C)c2ccccc12 | inactive: 1.65 µM
O=[N+]([O-])c1cccc2nc3ccccc3c(NCCCN3CCOCC3)c12 | active: < 0.0151 µM
CCc1cccc(C(C)C)c1NC(=O)CCl | inactive: > 100 µM
C=CC(=O)Nc1ccccc1CC(c1c[nH]c2ccccc12)c1c[nH]c2ccccc12 | inactive: 17.1 µM
C=C1[C@H](OC(C)=O)[C@H]2[C@@H](OC(C)=O)[C@@H](C)C[C@]2(C)C(=O)[C@H](C)/C=C/C(C)(C)C(=O)[C@H](OCC(C)C)[C@H]1OC(C)=O | inactive: > 25 µM
Cn1c(N)cc(=O)nc1N | inactive: > 100 µM
O=C(Cc1nc2ccccc2[nH]c1=O)c1c[nH]c2ccccc12 | inactive: 36.4 µM
CCOC(=O)/C(C(=O)Nc1cccc(Cl)c1)=C(/N)N1CCCC1 | inactive: > 100 µM
O=c1[nH]c(S)nc2c1sc(=S)n2-c1ccccc1 | inactive: > 100 µM
O=[N+]([O-])c1ccc(/N=N/c2c(O)ccc3ccccc23)cc1 | inactive: > 100 µM
CN1CC[C@]2(C)c3cc(O)ccc3CC3CCCC1C32C (some centres not stated) | inactive: > 100 µM
CCN(CC)CCNc1ccc2nnn3c4ccccc4c(=O)c1c23 | inactive: 2.71 µM
CC(=O)Oc1ccc(O)c2c1CCCC2 | inactive: > 100 µM

Structure (SMILES) | GI50
O=C(O)CCCc1cc2c(s1)-c1cccc3cccc-2c13 | inactive: 29 µM
Cc1ccc(N(C)S(=O)(=O)c2ccc([N+](=O)[O-])cc2)cc1 | inactive: > 100 µM
O=C(Nc1cccc2ccccc12)c1ccccc1 | inactive: > 100 µM
Cc1ccc(C)c(NC(=O)C(=O)C(C(=O)c2ccc3ccccc3c2)C2OC(=O)c3ccccc32)c1 (configuration not stated) | inactive: 10 µM
C=C1C(=O)OC2CC1C(OC(=O)/C=C/c1ccccc1)C/C(C)=C/CC/C(C)=C/CCC2(C)O (configuration not stated) | inactive: 3.98 µM
CC(=O)Nc1ccccc1S(=O)(=O)c1c(-c2c(C)c(Cl)c(C)c(Cl)c2C)noc1C | inactive: 75.7 µM
COC(=N)c1ncn(Cc2ccccc2)c1N | inactive: > 100 µM
COC(=O)c1ccccc1NCc1cc(O)ccc1O | inactive: 56.1 µM
Cc1ccnc2nc(-c3ccc4ccccc4c3)cc(O)c12 | inactive: 1.39 µM
Cc1ccc(C(C)(C)C[P+](C)(c2ccccc2)c2ccccc2)cc1 | inactive: 21.2 µM
C=CCc1cc(OC)c2c(c1)C(O)CC(c1ccccc1)O2 (configuration not stated) | inactive: > 100 µM
CC(=O)NC(Cc1ccsc1)C(=O)O (configuration not stated) | inactive: > 100 µM
CC1(C)C(=O)/C=C\C(=O)C(C)(C)C(=O)/C=C\C(=O)C(C)(C)C2=CC=C(O2)C(C)(C)C(=O)/C=C\C1=O | inactive: 18.8 µM
COC(=O)[C@@]1(C)/C(=N/NS(=O)(=O)c2ccc(C)cc2)CCC[C@@H]1C | inactive: > 100 µM
CCOC(=O)/C(O)=C1\C(=O)N(C)C(=O)C1c1cccc(OC)c1 (configuration not stated) | inactive: > 92 µM
O=C1c2c(ccc3c2CCCC3)CC12Cc1ccc3c(c1C2=O)CCCC3 | inactive: > 100 µM
C=C(C)CC1=C(C(=S)NCCO[Si](C)(C)C(C)(C)C)C(OCC)(OCC)C1=O | inactive: 19.3 µM
c1ccc2c(c1)[Se]c1ccccc1[Se]2 | inactive: 74.3 µM
CN(CCN(C)C(=O)CCn1cc(F)c(=O)[nH]c1=O)C(=O)CCn1cc(F)c(=O)[nH]c1=O | inactive: > 100 µM
CC(=O)Nc1ccc(-c2cc(C(=O)O)c3cc4ccccc4cc3n2)cc1 | inactive: > 100 µM
CC(C)(C)C(=O)OCOP(=O)(OCOC(=O)C(C)(C)C)OCC1OC(n2ccc(=O)[nH]c2=O)C(N=[N+]=[N-])C1O (configuration not stated) | inactive: 6.28 µM
CC1CCc2sc3nc(S)n(C)c(=O)c3c2C1 (configuration not stated) | inactive: 34 µM
